Test results published in PubChem BioAssay AID488969 (Vanderbilt High Throughput Screening Facility, 2010).
Over roughly 110,000 compounds, “z-score” has its median near -0.1; the highest 2% begin near 2. This is one part of the list. Active and inactive are the calls of the source.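 Rule for the calls: active = z-score in the third read window above 3 or below -3; inactive = the rest.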

Molecular target: Metabotropic glutamate receptor 8 (Rattus norvegicus) (UniProt P70579)
Assay: mGluR8 Gi/Go-coupled signaling modulation – cell-based, rat, thallium flux, HTS, primary screen (AID 488969)
Settings: HEK293 rat mGluR8, GIRK (G protein-gated inwardly rectifying potassium channel) thallium flux, FluoZin2; at 10 µM; stronger effect = higher value; submaximal glutamate (EC20) added with thallium

Chain of UniProt P70579 (P70579 whole entry, looked up): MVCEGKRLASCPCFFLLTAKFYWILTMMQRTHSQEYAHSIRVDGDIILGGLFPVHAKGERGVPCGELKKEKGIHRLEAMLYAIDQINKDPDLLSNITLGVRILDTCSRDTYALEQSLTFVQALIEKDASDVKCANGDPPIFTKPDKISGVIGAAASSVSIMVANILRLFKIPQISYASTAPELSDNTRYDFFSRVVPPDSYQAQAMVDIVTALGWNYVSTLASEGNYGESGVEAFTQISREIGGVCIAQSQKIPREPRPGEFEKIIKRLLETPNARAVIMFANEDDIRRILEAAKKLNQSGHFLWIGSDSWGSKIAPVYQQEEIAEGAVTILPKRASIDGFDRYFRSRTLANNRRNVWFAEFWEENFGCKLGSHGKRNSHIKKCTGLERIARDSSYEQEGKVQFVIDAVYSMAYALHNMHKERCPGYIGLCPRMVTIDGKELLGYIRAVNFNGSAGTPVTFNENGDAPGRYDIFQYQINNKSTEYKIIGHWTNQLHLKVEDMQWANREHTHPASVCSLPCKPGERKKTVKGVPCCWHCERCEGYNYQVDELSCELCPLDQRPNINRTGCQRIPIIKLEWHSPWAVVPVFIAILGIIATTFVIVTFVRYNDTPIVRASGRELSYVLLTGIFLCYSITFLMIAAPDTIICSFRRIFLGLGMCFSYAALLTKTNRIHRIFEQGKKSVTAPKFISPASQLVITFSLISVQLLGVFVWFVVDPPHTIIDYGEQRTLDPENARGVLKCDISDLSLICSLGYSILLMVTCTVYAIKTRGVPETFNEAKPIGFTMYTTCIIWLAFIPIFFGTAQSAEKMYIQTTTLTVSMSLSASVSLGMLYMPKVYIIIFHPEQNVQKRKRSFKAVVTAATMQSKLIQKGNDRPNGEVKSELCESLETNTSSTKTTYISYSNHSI

In order of rising z-score:
1. COCCNC(=O)C(c1ccco1)N(C(=O)Cn1nnc2ccccc21)c1ccccc1C (configuration not stated)  -1.02
2. COc1ccc(N2CCN(C(=O)COc3ccc4ccccc4c3)CC2)cc1  -0.993
3. Cc1ccc(-n2nc(C)c(NS(=O)(=O)c3ccccc3)c2C)cc1C  -0.924
4. Cc1ccc(C(=O)Nc2cc(C(F)(F)F)ccc2N2CCCCC2)cc1[N+](=O)[O-]  -0.837
5. CCOc1ccc2c(c1)sc(=NC(=O)C1CC1)n2C  -0.83
6. CC(C)N(C(=O)CSc1nc2ccccc2n1Cc1ccccc1)C(C)C  -0.561
7. CCn1c(=O)c(-[n+]2ccccc2)c(O)c2ccccc21  -0.561
8. c1ccc(Nc2nc(-c3ccccn3)cs2)cc1  -0.545
9. COc1cc(Cn2c(N)c(C#N)c3nc4ccccc4nc32)cc(OC)c1  -0.479
10. COCCNC(=O)C(c1ccc(C)o1)N(Cc1cccs1)C(=O)c1snc(C(N)=O)c1N (configuration not stated)  -0.381
11. O=C(NCCCN1CCCC1=O)c1cccc(N2CCCC2=O)c1  -0.337
12. Cc1c(/C=N/NC(N)=O)c2ccccn2c1C(=O)c1ccc(F)cc1  -0.327
13. Cc1ccc2c(C)nc(N/C(N)=N/S(=O)(=O)c3ccc([N+](=O)[O-])cc3)nc2c1  -0.286
14. O=[N+]([O-])c1cccc(-c2nnc(-c3ccc4c(c3)OCO4)o2)c1  -0.286
15. CN(C(=O)COC(=O)c1ccc(Cl)cc1N)C1CCS(=O)(=O)C1 (configuration not stated)  -0.285
16. O=C(COC(=O)C12CC3CC(CC(C3)C1)C2)Nc1ccc(OC(F)F)cc1  -0.271
17. CCOC(=O)c1cc(C)nn1-c1nc(Cl)cc(OC)n1  -0.255
18. CCn1c(COc2ccccc2)nnc1SCC(=O)c1cccc([N+](=O)[O-])c1  -0.246
19. O=C(NC1CC2CCCC(C1)N2S(=O)(=O)c1ccccc1)C1CCCCC1 (configuration not stated)  -0.223
20. Cc1cc([N+](=O)[O-])cc2c1-c1ncccc1C2=Nc1ccccc1  -0.213
21. COc1cccc(N=Nc2c(N)[nH][nH]c2=O)c1  -0.199
22. O=S(=O)(NCc1cc(-c2ccc(Cl)cc2)no1)c1ccccc1  -0.194
23. CCCNC(=O)C1CCN(S(=O)(=O)c2ccc(-c3nn[nH]n3)cc2)CC1  -0.171
24. CCOc1cc(CNc2ccc(CNc3ncn[nH]3)cc2)ccc1OCc1ccccc1  -0.171
25. CCOc1ccc(NC(=O)CNC(=O)c2ccc(OC)c(OC)c2)cc1  -0.166
26. O=C(/C=C/c1ccccc1)NCCN1CCOCC1  -0.165
27. Cc1ccc(C(=O)NC(NC(=O)c2ccc(C)cc2)C(Cl)Cl)cc1  -0.154
28. COc1cccc(C(=O)NC(C)c2ccc(Br)cc2)c1 (configuration not stated)  -0.143
29. COC(=O)COc1cc(OCC(=O)OC)c2c(C)c(Cl)c(=O)oc2c1  -0.142
30. O=C(COC(=O)c1cccnc1Nc1ccccc1F)NC1CC1  -0.132
31. O=C1C(Cl)=C(N2CCCCC2)C(=O)N1Cc1ccccc1  -0.114
32. Cn1c(=O)oc2cc(S(=O)(=O)N3CCC(C(=O)N4CC=C(c5ccccc5)CC4)CC3)ccc21  -0.11
33. COc1cccc(/C=N/NC(=O)c2cc(C34CC5CC(CC(C5)C3)C4)[nH]n2)c1  -0.105
34. c1ccc(C[n+]2cccc3c4ccccc4ccc32)cc1  -0.0839
35. CCn1c(-c2cc(Cl)ccc2OC)n[nH]c1=S  -0.0735
36. Cc1c(C=O)c(=O)n(-c2ccccc2)n1-c1ccccc1  -0.0631
37. CCOc1ccc(OCC(=O)N2CCOCC2)cc1  -0.0495
38. Cc1[nH]oc(=O)c1N=Nc1ccccc1  -0.0444
39. CCOC(=O)N1CCN(CC(=O)c2ccc3c(c2)CCN3C(C)=O)CC1  -0.036
40. CCCCC1(C)NC(=O)N(CC(=O)Nc2ccc(S(=O)(=O)N3CCOCC3)cc2)C1=O (configuration not stated)  -0.0271
41. Cn1c(SCc2ccccc2)nnc1-c1cnccn1  -0.0243
42. O=C(COc1ccccc1Br)NC1CCCC1  -0.0181
43. COc1cccc(NC(=O)COC(=O)c2nc3nccc(C)n3n2)c1  -0.0168
44. O=C(CSCc1ccccc1Cl)NNC(=S)Nc1ccccc1  0.00173
45. Cc1noc(C)c1C(=O)Nc1sc(C)c(C)c1C#N  0.0125
46. COc1cccc(CC(NC(C)=O)C(=O)NC2CCN(c3nc(C)cc(C)c3C#N)CC2)c1 (configuration not stated)  0.0161
47. O=c1[nH]n(-c2ccc(Cl)cc2)c(=O)c(Cl)c1Cl  0.0334
48. O=C(O)C1CCN(Cc2cnn(-c3ccccc3)c2-n2cccc2)CC1  0.0466
49. S=C1NCCOCCOCCOCCOCCN1  0.074
50. O=C(c1cccnc1)N1C2C=CC(C2)C1(C(F)(F)F)C(F)(F)F (configuration not stated)  0.0938
51. CN1CCN(NS(=O)(=O)c2cccs2)CC1  0.111
52. COc1cccc(NC(=O)c2ccn(C)n2)c1  0.125
53. CCOc1ccc(NC(=O)CN(c2ccc([N+](=O)[O-])cc2)S(=O)(=O)c2ccccc2)cc1  0.196
54. CCOC(=O)Cc1cc(-c2ccccc2)nc2ccc3ccccc3c12  0.252
55. CCOc1ccc2nc(SCC(=O)N3c4ccccc4Sc4ccccc43)sc2c1  0.268
56. CN(Cc1ccco1)C(=O)C(Cc1ccccc1)NS(=O)(=O)c1ccc2c(c1)CCC(=O)N2 (configuration not stated)  0.269
57. O=C(CSc1nnc(SCc2ccc(Cl)cc2)s1)N/N=C/c1c[nH]c2ccccc12  0.345
58. COc1ccc(OC)c(S(=O)(=O)n2ccnc2C)c1  0.384
59. OCCN=c1cc(-c2ccccc2)oc2ccc(Cl)cc12  0.389
60. CCCn1nnnc1-c1cc(Cl)cc(Cl)c1  0.41
61. CNCCCC12CCC(c3ccccc31)c1ccccc12  0.715
62. CCOC(=O)N1CCN(C(=O)c2ccccc2NC(=O)COc2ccccc2C)CC1  0.774
63. CC(NC(=O)C1(c2cccs2)CCOCC1)c1ccccc1 (configuration not stated)  0.798
64. Cc1ccccc1Cn1nc(C)c(NC(=O)c2noc3c2CC(C(C)(C)C)CC3)c1C (configuration not stated)  0.856
65. O=C(NCc1ccc(Cl)c(Cl)c1)c1cccnc1  0.88
66. CC(C)(CNC(=S)NCCc1ccccc1)CNC(=S)NCCc1ccccc1  0.891
67. Nc1nc(-c2ccccc2)nc(-c2ccccc2O)n1  1.01
68. CC(=O)c1cccc(NC(=S)NC(=O)c2ccccc2Br)c1  1.09
69. Cc1ccc(-c2nnc(CSc3nc(C(C)C)nc4sc(C)c(C)c34)o2)cc1  1.42

For `COc1ccc(C(=O)NC(=S)NNC(=O)CCc2ccccc2)cc1`, the z-score was active: 3.38.
For `O=C(Nc1ccc(CN2CCOCC2)cc1)c1cc2ccccn2n1`, the z-score was active: 4.59.
`Cc1ccc2c(CC(=O)NC3CCCc4ccccc43)coc2c1` (configuration not stated) was tested, and the z-score was active: 4.11.
